The structures appear in SMILES notation. The campaign covered roughly 150,000 compounds. About 540 (0.36%) showed an effect of 50% or more. The list shows a part of the results.

This assay concerns Plasmodium falciparum. Kind of assay: Primary screen in NF54 nanoGlo assay, in single point, at 2uM, 72h; a lower Z score goes with more inhibition. It counts as functional, Erythrocyte. The settings on record: timepoint 72 hour.
For orientation: % Inhibition means the relative decrease from the control value, in per cent. For `CCCn1nccc1-c1cnc(-n2cnnc2)c(C)c1`, the “% Inhibition” value is listed as -5% and the Z score is 0.51.
The like results for `CCn1nccc1C(=O)N1CCC[C@H]1c1ncc(C)n1Cc1ccc(F)cc1` were, in that order, 6% and -0.76.
For the compound `CN(Cc1cc(Br)ccc1OC(F)F)C[C@H]1CCCCO1`, the “% Inhibition” value is on record as -2% and the Z score was found to be 0.29.
For `CCN(CC)S(=O)(=O)c1ccc2c(c1)nnn2CCC(=O)Nc1nccs1`, the “% Inhibition” value is reported as -10% and the Z score is listed as 1.3.
As for `COc1cc(C)ccc1CN1CCN(Cc2ccccc2)C(=O)[C@@H]1C`, the “% Inhibition” value is -7% and the Z score came to 1.35.
The corresponding values for `CN(CC(=O)N1CC[C@@H](c2ccccc2Cl)S(=O)(=O)CC1)S(C)(=O)=O` are -6% and 1.01.
The like results for `Cc1nc2ccc(-n3nc(C4CC4)nc3-c3nn(C)cc3Cl)cc2s1` were, in that order, -6% and 0.94.
The like results for `COCc1cc(Cl)ccc1NC(=O)N1CCC[C@H](c2ccc(F)c(F)c2)C1` were, in that order, -3% and 0.36.
On to `c1ccc(-c2nnc(-c3cccnc3NCCN3CCOCC3)o2)cc1`, for which the “% Inhibition” value is -31% and the Z score came out at 2.98.
The corresponding values for `Cc1ccccc1OC[C@@H](O)CN(C(C)C)C(C)C` are -2% and 0.31.
`C[C@](O)(CCNc1ncnc2sccc12)c1ccccc1`: the “% Inhibition” value is on record as -14% and the Z score came out at 1.62.
With `CC1(C(=O)NCc2nnc(N)o2)CCCCCC1`, the “% Inhibition” value is reported as -9% and the Z score is 0.99.
For `NCc1noc(-c2ccc3c(c2)CCCC3)n1`, the “% Inhibition” value is recorded as -10% and the Z score turned out to be 1.43.
The corresponding values for `O=C(C(O)c1ccccc1)N1CCC(Oc2cccnn2)C1` (centres undefined) are -5% and 0.85.
The like results for `CC(C)N1CC(NC(=O)N2CCC(c3cnn(C)c3)C2)CC1=O` (centres undefined) were, in that order, -9% and 1.44.
In the case of `COc1ncccc1C(=O)Nc1cccc(-c2csc(Nc3ccc(F)cc3F)n2)c1`, the “% Inhibition” value came to 11% and the Z score was -1.38.
Take `CCCCN1C(=O)[C@@H]2C(Cc3ccc(O)cc3)NC3(C(=O)Nc4c(C)cc(C)cc43)[C@@H]2C1=O` (some centres undefined): the “% Inhibition” value was -6% and the Z score was found to be 1.
The corresponding values for `O=C(c1coc2ccccc12)N1CCn2cnnc2C1` are 1% and -0.13.
Take `CCOc1ccc(OCC)c(-c2nc3ccc(-c4ccc(OC)c(OC)c4OC)cc3o2)c1`: the “% Inhibition” value is -20% and the Z score was determined as 1.77.
As to `Nc1ncncc1C(=O)OCC(=O)N1CCCC1`, the “% Inhibition” value is -12% and the Z score is given as 1.23.
The corresponding values for `COCCN1CCC[C@H](CNC(=O)N2CC(c3nc4ccccc4[nH]3)C2)C1` are -8% and 1.5.
With `O=C(NCc1cccs1)C1CCN(c2cnc(N3CCCCCC3)nc2)CC1`, the “% Inhibition” value was -7% and the Z score came out at 1.07.
With `Cc1n[nH]c(C)c1CCNC(=O)[C@]1(c2ccccc2)CC12CCCC2`, the “% Inhibition” value is listed as -14% and the Z score is 2.39.
The like results for `COCC1(O)CCN(C(=O)Nc2ccc(Cl)cn2)CC1` were, in that order, 3% and -0.72.
Consider `CCc1cccc(Cl)c1CNCc1nc(C2CC2)n[nH]1`, for which the “% Inhibition” value is reported as 1% and the Z score is listed as -0.18.
In the case of `Nc1ccnc2ccc(-c3ccc(C(=O)N4CCC5(CCO5)CC4)cc3)cc12`, the “% Inhibition” value was found to be 11% and the Z score is -1.81.
Take `CCc1ocnc1C(=O)N1CCC[C@@]2(CCC(=O)N(CCOC)C2)C1`: the “% Inhibition” value is given as -9% and the Z score is recorded as 1.19.
Take `Cc1cccc(C[C@@H](CO)Nc2ccnc3c2cnn3C)c1`: the “% Inhibition” value is -10% and the Z score is 1.85.
In the case of `O=C(c1coc2ccccc12)N1CCC(F)(F)CC1`, the “% Inhibition” value is recorded as -12% and the Z score is on record as 2.01.
The like results for `CCn1nnc(C)c1CN[C@@H](COC)c1cccc(Cl)c1` were, in that order, -10% and 2.06.
The corresponding values for `Cn1nc(-c2ccc(F)cc2)cc1C(=O)N1CCC(n2c(=O)[nH]c3ncccc3c2=O)CC1` are -11% and 1.44.
As for `CCCc1nc(CN(C)CC(=O)NC2CCCCCC2)no1`, the “% Inhibition” value is 7% and the Z score is recorded as -1.05.
The corresponding values for `Cc1ccc(NC(=O)CCNC(=O)Cc2coc3cc(C)c(C)cc23)cc1` are -7% and 0.95.
The corresponding values for `Cc1ncoc1-c1nc(COc2ccccc2)nn1CCc1cnc[nH]1` are 4% and -0.69.
The like results for `CCOc1ccccc1[C@H]1C2CCCCC2(O)CCN1C/C=C/c1ccccc1` (some centres undefined) were, in that order, -10% and 1.31.
With `O=C(O)[C@@H]1CCCN1C(=O)c1ccc(Oc2ccncc2)c(Cl)c1`, the “% Inhibition” value was -2% and the Z score was 0.32.
`COCC1CCN(C(=O)C2CCCCCC2)CC1`: the “% Inhibition” value is given as 12% and the Z score was -1.66.
The like results for `CCCCc1cn(C2CCN(C(=O)[C@H](C)N3CCCC3)CC2)nn1` were, in that order, -11% and 1.57.
In the case of `CC1CCCCC1NC(=O)CN(C)CCO` (centres undefined), the “% Inhibition” value is -8% and the Z score came out at 1.47.
The corresponding values for `CC1(C)CC(=O)c2cn(-c3ccc(Cl)cc3)c(=O)c(C(=O)NCCN3CCOCC3)c2C1` are -13% and 1.42.
The like results for `Cc1[nH]c(=O)[nH]c(=O)c1-c1cccc(C(=O)NCCCN2CCCC2=O)c1` were, in that order, -6% and 1.3.
The corresponding values for `COc1cccc(-c2cc3c(N4CCN(c5ncccn5)CC4)nccn3n2)c1` are 5% and -0.59.

These data come from ChEMBL document CHEMBL4888484, “Replenishing the malaria drug discovery pipeline: Screening and hit evaluation of the MMV Hit Generation Library 1 (HGL1) against asexual blood stage Plasmodium falciparum ,using a nano luciferase reporter read-out” (2022).
